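The compound was tested at five concentrations on cells cultured in 96-well plates, with a 48-hour exposure period. At the GI50, growth is halved.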 The source holds more than one record for some entries. This is not the full list of results. The source may hold further records. A record mostly stands for its own series of concentrations, which the source does not state; a value can be the end of its range.
System: MDA-MB-468 breast
Experiment: NCI anticancer screen, dose series, 48 h

CCc1nc(N)nc(N)c1C#CC(C)c1ccc(-c2ccncc2)cc1Cl (stereo unspecified) was tested, and the GI50 was 23.2 nM and 461 nM.

From PubChem BioAssay (NCI)
